Sequences with one replicate were seen in a single cluster, so their values are uncertain.
Tested on: ATP
Assay: switch fluorescence ratio, 500 uM ATP over buffer (Cy3 cluster intensity, sum of 5 cycles each) (fold (ratio)); higher = stronger signal-on switching upon ATP binding; sequences stand for … in TCGTCGGCAGCGTCAGATGTGTATAAGAGACAGTTTTTTTTTTTTTTTTTTTTTTTTT…TC
Settings: aptamer strand: ATP DNA aptamer (quencher-CACCTGGGGGAGTATTGCGGAGGAAGG + anchor), 100 nM annealed; ATP concentration: 500 uM; one replicate
How it was run: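 Five buffer/ATP imaging cycles were run on Cy3-labelled switching-strand clusters on a modified Illumina MiSeq flow-cell, with NaOH stripping and re-annealing between cycles. In each cycle, clusters annealed to 100 nM quencher-labelled ATP aptamer were imaged in selection buffer, then after 15 min with 500 uM ATP at 22 °C. Per cluster, the fluorescence ratio is summed target-cycle over summed buffer-cycle Cy3 intensity, averaged per switch-domain sequence. Only clusters within 100-1000 RFU were kept.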
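Note: ATP exposure 15 min at 22 °C before imaging.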

Row | Sequence | switch fluorescence ratio
1 | GAGAAGTAAC | 0.998
2 | CGCATCTCTT | 1.18
3 | CCGTAGCAGT | 2.39
4 | CCTTGGAGGT | 1.04
5 | ACAGGTTTAC | 1.02
6 | TGATGGGGAA | 0.96
7 | GTGCTCGGGT | 1
8 | CGGTGCACTT | 1.05
9 | AGGCCATCCA | 0.983
10 | CTAAGGGCGT | 1.01
11 | CGCTGCAAAT | 4.28
12 | AAGATATACA | 1.02
13 | CATTTTCTGG | 1.02
14 | CCAATCAAGG | 1.01
15 | TTTTGATTCA | 0.993
16 | AGGTATGAAT | 1.01
17 | TCGAATCTCG | 0.978
18 | AGTCTGGCTC | 1.04
19 | TGGAGGCTGC | 1.02
20 | CGAGAATAGT | 1.01
21 | CCGGGTGTAA | 1.15
22 | GACGCTGCGG | 0.989
23 | GGGTAGGAGC | 1.03
24 | CAGAGTACCC | 1.06
25 | AATAGGACCG | 1.06
26 | ATTGTTACCC | 1.01

Row | Sequence | switch fluorescence ratio
27 | TTATGGGATG | 0.985
28 | TTACCTTGT | 0.984
29 | TAATTCAAAA | 1.01
30 | ATAGTGCCCG | 0.997
31 | TCGCCCTAAC | 1.29
32 | TTGTCATTTC | 1.03
33 | GACAATTGGC | 0.968
34 | TGATGTAAGA | 0.965
35 | TTTACATCT | 0.971
36 | TTTTGAATAC | 1.25
37 | GATGGGTAGT | 0.983
38 | TCAGATGCCA | 1.02
39 | GACCGACAAG | 1.04
40 | ACCTAGTGGT | 1.06
41 | AAACTAAAAT | 1
42 | ACCCCCGCTC | 2.44
43 | GTGAGTATGT | 0.982
44 | CATTAGCCCA | 1.04
45 | GGGATATT | 1.01
46 | TGTATTACCG | 1.01
47 | AGCCGAGTTT | 0.998
48 | CTCAAGAAAT | 1.04
49 | AAAAGCACG | 0.994
50 | GGAAGGTGT | 1.25
51 | GCACTTGGTT | 1.05
52 | GGCTCAGTTG | 1.18

Row | Sequence | switch fluorescence ratio
53 | TCCATCAGCC | 0.997
54 | AATGCGTCGG | 1.01
55 | GCGTGGATTT | 1.03
56 | TCCGCCCAGA | 1.9
57 | GCTGCGCGCT | 1.03
58 | GAGTTTAAGC | 0.971
59 | TTTTCTGAGT | 1.01
60 | GGCGCACAGG | 1.38
61 | GCCACACGTG | 0.986
62 | AACTGTATTA | 1.07
63 | ACCGGACTA | 1.28
64 | GACCTATATG | 1.02
65 | TTATAGTAGT | 1.05
66 | TACAATTAAT | 1.03
67 | TTCAAGACGA | 1.17
68 | AATCCTTACT | 1.45
69 | CAAACCATAC | 1.71
70 | AGGCGGACGG | 1.02
71 | TTATTGCGTT | 1.03
72 | AAGTTAGTCT | 1.07
73 | ATGGGAATGC | 1.17
74 | CACGGGTATG | 0.997
75 | GAAGCTATGT | 1.05
76 | AGTCTTGTGG | 0.991
77 | CCAGGTTACG | 1.05
78 | TGGATGGATG | 1.06

Row | Sequence | switch fluorescence ratio
79 | ACACGGGCGG | 0.992
80 | CTTGCACTTT | 0.988
81 | GACACGAAAG | 0.972
82 | TAATCACTCG | 1
83 | CTAGTATCGA | 1.03
84 | GGTCCGGGCA | 0.98
85 | CTGAAAGTGG | 0.966
86 | GTATTGGGG | 1.02
87 | ACTTGTTTGT | 0.986
88 | CAATCGCTTC | 1.39
89 | CCATCACTTC | 1.05
90 | TGCATAAGGC | 0.991
91 | GTCATGGGCG | 0.985
92 | GTGATTTGGC | 0.966
93 | AGGTGATTC | 1
94 | GAAATGACAA | 0.979
95 | CGCCGTTCC | 1.05
96 | TAGAATGCGT | 1.05
97 | ACTATTATAA | 1.03
98 | CAATGATGAG | 1.02
99 | CATGTTGGCG | 0.997
100 | CGCAAACGTG | 1.66
101 | ATGTGGAGCG | 1.03
102 | AATAGATTGT | 0.978
103 | CCCTGCGTAG | 1.13
104 | ATGGACTTTT | 0.994

Row | Sequence | switch fluorescence ratio
105 | AATATGTTT | 1.01
106 | TACAATTAT | 1.04
107 | TCCCTAGGGA | 1.06
108 | GTTGGGGATA | 1.02
109 | TTAATGGACG | 0.967
110 | GCGGGGAATG | 0.986
111 | TACGATATA | 1.1
112 | ATATACACAA | 1.07
113 | TGCGCCCGGA | 1.03
114 | CTGACGTTAA | 3.45
115 | ATTAAGTGGT | 0.952
116 | TTCAGGTAGT | 0.958
117 | TGAACGGACG | 1
118 | ACTACTACCT | 1.31
119 | GACGGATTAT | 0.979
120 | ATGGAAGTAC | 1.24
121 | GGGTGCGTGG | 1.01
122 | TGTTCACAAC | 0.994
123 | AAGCGTAAGA | 1.03
124 | TATTTAGCAC | 1.08
125 | ATTCGGCGAC | 1.01
126 | GCGTGAGCAT | 1.01
127 | ACGCATTTCC | 2.39
128 | TTCGACCCGA | 1.03
129 | GGGGTCTGTT | 1.01
130 | CATAACACGC | 1.05

Row | Sequence | switch fluorescence ratio
131 | AGTTATGC | 1.05
132 | ATAGGGCAGA | 0.995
133 | AAATGATCCT | 1.04
134 | CACATTCTCA | 1.02
135 | TAGTTTGCAG | 1.03
136 | ACCCATTGTC | 1.05
137 | ACATTAGTCG | 1.03
138 | GTACTATGGC | 0.994
139 | GAGACTCTG | 1.04
140 | GGAGTGATGA | 1.11
141 | TTCTACCTGG | 0.98
142 | AATGATGGAG | 0.955
143 | GATAATTAGA | 1.01
144 | GTCAGAGCTG | 1.1
145 | AATCTATGG | 0.903
146 | TCGGCCTCCG | 1.02
147 | TAGAGATTCA | 0.998
148 | ACAGTCAGGG | 1.12
149 | TATCGATAGA | 1.01
150 | GGACTCCAGA | 1.05
151 | TAGTATTATA | 1.03
152 | GGCGTACGA | 1.04
153 | CGAAAAAGGG | 0.994
154 | AGTTATGCAG | 1.08
155 | TAATACAACT | 1.03
156 | ATCTCCTATG | 0.985

Row | Sequence | switch fluorescence ratio
157 | GTCTGAGG | 0.986
158 | GGAGTAGCTT | 0.972
159 | GGTGGGTCAT | 1.06
160 | GTGGAAAAGT | 0.972
161 | GTACGTTCGT | 1.04
162 | TGGGTTCTGC | 1.07
163 | TCAATCGTGC | 0.981
164 | CAGGGTCCAA | 1
165 | ATTCCGTCAT | 1.1
166 | CACTAGAATT | 0.978
167 | ACACAGACAA | 1.15
168 | TTGCGGGGCG | 1.11
169 | AAAGTTTCCT | 1.13
170 | TAGATACGCC | 1.15
171 | CCCGTTCGAA | 1.01
172 | GTCGGGGTGG | 0.986
173 | CTCCCGGGCA | 1.09
174 | CCATAAGAGC | 1.01
175 | GAGTCCCATC | 1.03
176 | CGTCCAAGGA | 1.04
177 | ACTTACTGTT | 1.31
178 | CTGGGATG | 1.04
179 | AACCACTATC | 1.08
180 | GTTCCTAAAC | 1.86
181 | TCCTTGTGAT | 1.05
182 | TCTTGATGCG | 0.951

Row | Sequence | switch fluorescence ratio
183 | CTGGCAAGTT | 1.02
184 | CGTCGTTTCG | 0.988
185 | AATTGAAGCC | 1.02
186 | TGATATGTCC | 1.04
187 | TCATTAGCCG | 1.03
188 | GTACGTTGAG | 0.992
189 | CCACAATCGG | 1.31
190 | AGAGTGATAG | 1.01
191 | TGAAGAAGCG | 0.988
192 | GTTCGAACCA | 1.02
193 | CTGTTATACA | 0.997
194 | GAGTTTCAAT | 0.996
195 | TTTAAATTGC | 1.01
196 | ACGATGCAGC | 1.68
197 | GACGAACTTT | 1.21
198 | CAATAGTACG | 0.986
199 | CTTTTTATCG | 1.08
200 | AGGCTAGCTG | 0.999
201 | TCGATGTGAG | 1.03

Reference: the supplement of paper PMC10126150
